In PMC3618364:
Results are given in words; binding and its absence hold for the method and conditions named. For some of these results: In cells and extracts the contact can be indirect. Some entries that bind do so weakly or less than the wild type.

Sequences of proteins named here, by UniProt entry; tags and fusion partners are left off.
UniProt Q08562: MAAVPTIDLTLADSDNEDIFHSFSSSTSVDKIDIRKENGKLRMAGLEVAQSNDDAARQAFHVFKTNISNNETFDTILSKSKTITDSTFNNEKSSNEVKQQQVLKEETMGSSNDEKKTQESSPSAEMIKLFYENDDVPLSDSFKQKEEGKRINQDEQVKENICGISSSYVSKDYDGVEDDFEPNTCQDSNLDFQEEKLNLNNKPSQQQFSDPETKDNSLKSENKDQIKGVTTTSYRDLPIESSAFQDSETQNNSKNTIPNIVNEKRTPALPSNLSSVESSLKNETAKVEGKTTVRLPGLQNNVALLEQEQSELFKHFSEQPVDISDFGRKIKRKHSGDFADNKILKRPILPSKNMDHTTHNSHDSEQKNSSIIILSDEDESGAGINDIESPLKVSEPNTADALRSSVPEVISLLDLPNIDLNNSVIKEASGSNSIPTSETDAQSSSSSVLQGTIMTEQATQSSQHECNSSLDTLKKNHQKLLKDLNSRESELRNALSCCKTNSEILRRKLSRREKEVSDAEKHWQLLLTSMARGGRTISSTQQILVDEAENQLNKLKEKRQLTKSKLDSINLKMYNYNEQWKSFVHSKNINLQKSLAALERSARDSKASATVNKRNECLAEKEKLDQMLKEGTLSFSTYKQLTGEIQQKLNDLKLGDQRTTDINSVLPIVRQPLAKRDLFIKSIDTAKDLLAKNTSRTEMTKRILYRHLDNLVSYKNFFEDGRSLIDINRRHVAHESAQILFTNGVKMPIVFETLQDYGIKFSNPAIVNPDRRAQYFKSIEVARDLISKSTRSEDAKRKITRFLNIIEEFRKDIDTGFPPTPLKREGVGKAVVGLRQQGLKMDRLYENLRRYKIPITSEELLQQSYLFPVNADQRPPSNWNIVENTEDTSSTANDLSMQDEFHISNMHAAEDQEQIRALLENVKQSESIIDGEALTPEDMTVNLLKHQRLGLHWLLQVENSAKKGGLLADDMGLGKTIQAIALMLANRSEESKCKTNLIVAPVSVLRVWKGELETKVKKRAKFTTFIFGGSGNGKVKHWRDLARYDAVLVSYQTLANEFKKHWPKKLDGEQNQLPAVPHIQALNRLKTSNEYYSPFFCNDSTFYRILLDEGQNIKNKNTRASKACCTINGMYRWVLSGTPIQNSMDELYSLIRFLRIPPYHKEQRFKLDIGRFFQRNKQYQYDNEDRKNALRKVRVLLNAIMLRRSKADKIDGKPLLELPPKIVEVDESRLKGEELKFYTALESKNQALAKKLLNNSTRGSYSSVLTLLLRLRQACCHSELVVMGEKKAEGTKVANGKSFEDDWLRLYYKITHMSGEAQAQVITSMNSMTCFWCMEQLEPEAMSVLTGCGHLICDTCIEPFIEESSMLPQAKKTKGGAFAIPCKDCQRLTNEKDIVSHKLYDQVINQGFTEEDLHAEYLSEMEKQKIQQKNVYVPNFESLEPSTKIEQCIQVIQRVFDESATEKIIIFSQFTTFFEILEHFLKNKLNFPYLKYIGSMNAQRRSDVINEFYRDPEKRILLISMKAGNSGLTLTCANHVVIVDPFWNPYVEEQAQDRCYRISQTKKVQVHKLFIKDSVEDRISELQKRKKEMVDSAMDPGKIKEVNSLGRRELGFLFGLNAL

Assays:
[1] = target: Gal4BD-Smt3 (SUMO) (S. cerevisiae) [SUMO: Q12306]; assay: two-hybrid; Gal4AD and Gal4BD fusions (pGADT7, pGBKT7) in reporter strain PJ69-4A; His (10 mM 3AT) and Ade reporter phenotypes on plates
[2] = target: T1, Gal4BD-Slx5 (S. cerevisiae) (UniProt P32828); assay: as above
T1 sequence: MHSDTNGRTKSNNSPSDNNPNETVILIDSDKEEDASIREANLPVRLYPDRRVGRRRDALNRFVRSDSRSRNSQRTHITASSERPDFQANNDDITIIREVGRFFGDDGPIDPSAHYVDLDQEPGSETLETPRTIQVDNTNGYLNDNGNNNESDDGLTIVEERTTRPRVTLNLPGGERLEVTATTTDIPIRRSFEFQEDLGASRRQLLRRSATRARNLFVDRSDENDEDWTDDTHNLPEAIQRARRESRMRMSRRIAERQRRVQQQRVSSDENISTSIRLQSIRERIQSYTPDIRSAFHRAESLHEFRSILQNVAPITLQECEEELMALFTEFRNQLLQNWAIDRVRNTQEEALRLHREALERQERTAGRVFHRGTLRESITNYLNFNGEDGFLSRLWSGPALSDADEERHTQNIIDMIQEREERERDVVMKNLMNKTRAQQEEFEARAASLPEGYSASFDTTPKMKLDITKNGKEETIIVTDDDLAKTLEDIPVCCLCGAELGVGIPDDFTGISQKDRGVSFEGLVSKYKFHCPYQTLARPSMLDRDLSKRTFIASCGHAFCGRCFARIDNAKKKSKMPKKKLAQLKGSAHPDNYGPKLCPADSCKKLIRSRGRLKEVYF

[3] = target: T2, Gal4BD-Ubc9 (S. cerevisiae) (UniProt P50623); assay: as above
T2 sequence: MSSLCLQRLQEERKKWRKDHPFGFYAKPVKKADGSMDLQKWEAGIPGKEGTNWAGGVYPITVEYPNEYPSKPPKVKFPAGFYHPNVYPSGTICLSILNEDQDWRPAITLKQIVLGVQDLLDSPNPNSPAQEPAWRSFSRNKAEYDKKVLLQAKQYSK

TAP-Slx5 (S. cerevisiae) = target: T3, TAP-Slx5 (S. cerevisiae) (UniProt P32828); assay: co-IP; extracts of strain ZY528 (genomic TAP-Slx5) with a plasmid for HA-Uls1; IgG beads (TAP-Slx5) or HA beads, 1.5 hr at 4°C, RNP buffer (20 mM HEPES pH 7.4, 100 mM NaCl, 0.1% NP-40); Western blot with anti-HA and anti-TAP
T3 sequence: T1 sequence

Row | binding [1] | binding [2] | binding [3] | binding (TAP-Slx5 (S. cerevisiae)) | Substance
1 | binds | binds | no binding |  | Gal4AD-Uls1 (1-1619) (from UniProt Q08562 1-1619)
2 |  |  |  | binds | HA-Uls1 (from UniProt Q08562 1-1619)
